Source: PubChem BioAssay AID1671193 (National Center for Advancing Translational Sciences (NCATS), 2021)
Screen size: about 150,000 compounds; about 180 (0.12%) were called active. This list was built around the results that the source calls inconclusive (neither active nor inactive); the mix of calls is not that of the screen. The call rests on the fitted dose curve; in most records, active means well fitted cell-killing curve with a large enough effect; inconclusive means small, poorly fitted or top-dose-only effect, or effect the other way; inactive means flat fitted curve, though single readings scatter. Where the call is inconclusive, the potency comes from a doubtful curve fit.

Assay: GF-AFC viability counterscreen for inhibitors of alpha-synuclein gene (SNCA) expression; further: nearly all actives have a fitted effect of over 30% in size;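 on activity change, negative = cytotoxicity: 0% = DMSO-treated cells and -100% = medium-only wells without cells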
Settings: HEK-293-SNCA-luc viability, GF-AFC fluorescence, 24 h; activity change, negative = cytotoxicity: at 57.1 µM (top of the series) unless noted
Procedure, shortened: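 Cytotoxicity counterscreen: after 24 h compound treatment of genome-edited SNCA-luciferase HEK-293 cells, live-cell protease substrate GF-AFC read by fluorescence after 30 min; activity scaled between DMSO (0%) and medium-only (-100%), curves Hill-fitted.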
Potency means the concentration at half of the fitted maximal effect; tags describe the fitted curve by direction and shape.

Row | SMILES | activity change, negative = cytotoxicity | Potency
1 | O=C(NCc1ccccc1)C1=NO[C@@H]2CN(Cc3ccc(O)c(Cl)c3)C[C@H]12 | inactive: -0.956% [at 87.6 µM] | –
2 | Cc1noc2c(-c3cccnc3NCCN3CCOCC3)cc(-c3ccccc3)nc12 | inactive: -3.98% [at 87.6 µM] | –
3 | O=C(NCc1ccccc1Cl)c1ccc2c(c1)N(Cc1ccccc1)CCS2 | – | inconclusive: 39.8 µM [cytotoxic, partial curve, poor fit]
4 | O=C(NCC1CC1)c1cc(Br)cn2ccnc12 | – | inactive
5 | COc1cc(CNCc2ccccc2C)ccc1OCC(O)CN1CCOCC1 (centres undefined) | – | inconclusive: 31.6 µM [cytotoxic, single point]
6 | CCOc1ccc(OCC)c(NC(=O)c2cc(-c3cccs3)nc3ccccc23)c1 | – | inconclusive: 15.8 µM [rising, partial curve, poor fit]
7 | Cc1ccc(CNC(=O)CCCc2nnc3n(CC(C)C)c(=O)c4sccc4n23)cc1 | – | inconclusive: 14.1 µM [cytotoxic, partial curve, poor fit]
8 | CCCCCCCCOc1ccccc1C(=O)Nc1ccc(C(=O)OCC[N+](C)(CC)CC)cc1 | – | inconclusive: 1 µM [rising, full curve, poor fit]
9 | CN(C)C[C@@H]1CN(c2ncccn2)C[C@H]1NC(=O)c1cccc(F)c1 | – | inconclusive: 1.78 µM [rising, full curve, poor fit]
10 | CCc1c(C)c(C#N)c2nc3ccccc3n2c1Nc1cccc(C(F)(F)F)c1 | – | inconclusive: 3.55 µM [rising, single point]
11 | COc1ccc(-c2noc(-c3cccn3CC(=O)Nc3cc(Cl)c(OC)cc3OC)n2)cc1F | – | inconclusive: 39.8 µM [cytotoxic, single point]
12 | COc1cccc(Cl)c1-c1nccc2c(=O)cc(-c3ccccn3)oc12 | – | inconclusive: 15.8 µM [cytotoxic, partial curve, poor fit]
13 | O=C([C@H]1C[C@H](Oc2ccccc2)CN1S(=O)(=O)Cc1ccccc1)N1CCOCC1 | – | inconclusive: 14.1 µM [cytotoxic, partial curve, poor fit]
14 | O=C(c1ccc(Cl)cc1)N1CC2(CCN(Cc3ccccn3)C2)Cc2ccccc21 (centres undefined) | – | inconclusive: 25.1 µM [cytotoxic, partial curve, poor fit]
15 | COc1ccc(-c2nc3ccccc3s2)cc1NC(C)=O | inactive: -6.97% | –
16 | CC(=O)c1cccc(Nc2nc(-c3ccccc3Cl)nc3ccccc23)c1 | – | inconclusive: 10 µM [cytotoxic, partial curve]
17 | Cc1ccc(Cn2c(C3CCN(C(=O)Cc4cccs4)CC3)n[nH]c2=O)cc1 | inactive: 5.24% | –
18 | COCc1ccc2c(c1)c(OC(C)(C)C(=O)N1CC(O)C1)nn2Cc1ccccc1 | inactive: -3.96% [at 87.6 µM] | –
19 | O=C(NCCc1cccs1)c1noc(-c2ccc(F)cc2)n1 | inactive: 7.43% | –
20 | Cc1cc2nc3n(c(=O)c2n1CC(=O)Nc1ccc2c(c1)OCO2)CCCC3 | inactive: -6.39% | –
21 | O=C(CN1CCCC1=O)N1CCC(N2CC(OCC3CC3)C23CCCCC3)CC1 (centres undefined) | inactive: 3.78% | –
22 | O=C(C1CC1)N1CCCC(N2CCN(c3cccc(C(F)(F)F)c3)CC2)C1 (centres undefined) | – | inconclusive: 39.8 µM [cytotoxic, single point]

Row | SMILES | activity change, negative = cytotoxicity | Potency
23 | CN(Cc1ccccc1)Cc1nnc2cc(-c3nc(-c4ccccc4)no3)ccn12 | inactive: -5.15% | –
24 | CC(=O)Nc1cccc(OCc2nnc(C(=O)N3CCC[C@@H]3C(c3ccccc3)c3ccccc3)n2-c2ccccc2)c1 | – | inconclusive: 28.2 µM [cytotoxic, partial curve, poor fit]
25 | O=[S+]1([O-])NC2(CCN(Cc3cccc4ccccc34)C2)CNc2ccccc21 (centres undefined) | inactive: -6.81% | –
26 | C=C1C(=O)O[C@@H]2C[C@@]3(C)CCCC(=C)[C@]3(O)C[C@H]12 | – | inconclusive: 37.7 µM [cytotoxic, single point]
27 | Cc1cnc(CN2CC3(CCC2=O)CCN(C(=O)[C@H]2C[C@@H]4C=C[C@H]2C4)CC3)cn1 | inactive: -14.5% | –
28 | COc1cccc(-c2cc(F)ccc2C2Cc3nc(N)nc(C)c3C(=O)N2)n1 (centres undefined) | – | inconclusive: 0.134 µM [cytotoxic, full curve, poor fit]
29 | COc1ccc(OC)c(CCNC(=O)CN2C(=O)COc3ccc(S(=O)(=O)N4CCCCCC4)cc32)c1 | – | inconclusive: 20 µM [cytotoxic, partial curve, poor fit]
30 | COc1cc(CN2CCN(S(=O)(=O)c3ccc(F)cc3)CC2)cc(OC)c1OC | inactive: -11.6% | –
31 | CN1C2CCC1CC(OC(=O)[C@H](CO)c1ccccc1)C2 (some centres undefined) | – | inconclusive: 8.44 µM [rising, single point]
32 | COc1cc(OC)cc(C(=O)N2[C@@H]3CC[C@H]2CC(NC(=O)c2ccc(F)cc2)C3)c1 (some centres undefined) | – | inconclusive: 3.55 µM [cytotoxic, full curve, poor fit]
33 | O=C(Cc1cccs1)N1CCOc2ccc(CN3CCc4ccccc4C3)cc2C1 | – | inconclusive: 2.51 µM [cytotoxic, full curve, poor fit]
34 | CCc1nc2ccc(C(=O)NCCc3ccc(OC)cc3OC)cc2nc1CC | – | inconclusive: 39.8 µM [cytotoxic, single point]
35 | COc1ccc(-c2cn3c(n2)N(C(=O)c2cccs2)CCC3)cc1 | inactive: -1.55% | –
36 | O=C(Nc1ccc(Cl)cc1)c1nc2c(o1)CCN(Cc1ccc(F)cc1F)CC2 | – | inconclusive: 56.2 µM [cytotoxic, single point]
37 | Cc1cc(C)cc(-c2ccc(CN3CCCC(NC(=O)Cc4ccc(F)cc4)C3)cc2)c1 (centres undefined) | – | inconclusive: 2.82 µM [cytotoxic, full curve, poor fit]
38 | COc1cccc(Nc2ncc3ncc(=O)n(Cc4cccs4)c3n2)c1 | – | inconclusive: 20 µM [cytotoxic, single point]
39 | CCc1nnc(NC(=O)C2CC(=O)N(c3n[nH]c4ccccc34)C2)s1 (centres undefined) | inactive: 11.4% | –
40 | Cn1cc(-c2cnc(Nc3ccc(N4CCOCC4)cc3)c3c2CCO3)cn1 | inactive: -2.86% [at 87.6 µM] | –
41 | CC(=O)c1cccc(NC(=O)Cn2c(N3CCCCC3)nc(C)c(C)c2=O)c1 | – | inconclusive: 3.16 µM [cytotoxic, full curve, poor fit]
42 | Clc1cccc(-n2ncc3c(N4CCCCCC4)ncnc32)c1 | inactive: -1.97% | –
43 | CCc1noc(-c2cccn3c(CNC(=O)c4ccccc4OC)nnc23)n1 | inactive: -12.3% | –
44 | Cc1ccc(Nc2ccnc(N3CCC(C(=O)Nc4ccccc4F)CC3)n2)cc1 | – | inconclusive: 5.62 µM [cytotoxic, single point]

Row | SMILES | activity change, negative = cytotoxicity | Potency
45 | CC1=C[C@@H](CN2CCN(c3ccccn3)CC2)[C@H](C(C)C)C[C@H]1Cc1nnc(-c2ccccc2)o1 | – | inconclusive: 17.8 µM [cytotoxic, partial curve, poor fit]
46 | COc1cc(OC)c(NC(=O)C(C)n2nc(-c3ccc(C)cc3)c3c(c2=O)CCCC3)cc1Cl (centres undefined) | – | inconclusive: 20 µM [cytotoxic, partial curve, poor fit]
47 | CCNC(=O)Nc1ccc(-c2nc3c(c(N4CCOC[C@@H]4C)n2)CCN(c2ncccn2)C3)cc1 | – | inconclusive: 0.189 µM [cytotoxic, full curve]
48 | CCOc1ccc(Nc2oc(-c3ccc(COc4ccc(C)cc4)o3)nc2C#N)cc1 | – | inconclusive: 28.2 µM [cytotoxic, single point]
49 | O=C(Cc1cccc(F)c1)N1CCC[C@H]1c1nc(-c2ccccc2Cl)no1 | – | inconclusive: 22.4 µM [cytotoxic, partial curve, poor fit]
50 | CCCOCc1cc(CN2CCN(c3ccccc3OC)CC2)c(O)c2ncccc12 | – | inconclusive: 3.55 µM [cytotoxic, full curve, poor fit]
51 | CCC[C@H](NC(=O)C(C#N)=Cc1cccc(Br)n1)c1ccccc1 | – | inconclusive: 30.4 µM [cytotoxic, single point]
52 | Cc1cccc(C)c1NC(=O)CN(C)S(=O)(=O)c1ccc2[nH]c3c(c2c1)CCCC3 | inactive: -3.46% | –
53 | O=C(CNC(=O)c1ccc(-c2cnc3ccccc3c2)cc1)NCc1ccccc1F | – | inconclusive: 1 µM [cytotoxic, full curve, poor fit]
54 | c1ccc(-c2nc(-c3ccc(OC4CNC4)cc3)no2)cc1 | – | inconclusive: 28.2 µM [cytotoxic, single point]
55 | CCOc1ccc(C(=O)Nc2ccc3nc4c(c(Nc5ccccc5OC)c3c2)CCCC4)cc1 | – | inconclusive: 8.91 µM [cytotoxic, partial curve]
56 | Nc1cc(C(F)(F)F)c(-c2cc(N3CCOCC3)nc(N3CCOCC3)n2)cn1 | – | inconclusive: 1.08 µM [cytotoxic, full curve, poor fit]
57 | Cc1nn(-c2ccc(C(C)C)cc2)c(C)c1[C@@H]1C=C[C@@H](NC(=O)NCc2ccccc2)C1 | – | inconclusive: 12.6 µM [cytotoxic, full curve, poor fit]
58 | COC(=O)N1CCCN(c2nc3ncccc3o2)CC1 | inactive: -2.82% [at 87.6 µM] | –
59 | O=C(CCNc1c(-c2ccccc2)nc2cnccn12)N1CCCC1 | – | inconclusive: 39.8 µM [rising, single point]
60 | COCCNC(=O)c1ccc2c(c1)N(C)C(CC(=O)Nc1ccc[nH]c1=O)CO2 (centres undefined) | inactive: 2.02% | –
61 | CCOC(=O)c1ccc(NC(=O)c2nc(S(=O)(=O)Cc3ccccc3)ncc2Cl)cc1 | – | inconclusive: 28.2 µM [cytotoxic, single point]
62 | O=C(NC1CCN(c2nc3ncccc3o2)CC1)c1cccc(Cl)c1 | – | inconclusive: 39.8 µM [cytotoxic, single point]
63 | CN(C)c1cccc(-c2cnc(Nc3cccc(N[S+](C)(=O)[O-])c3)c3c2CCO3)c1 | – | inconclusive: 28.2 µM [cytotoxic, single point]
64 | N#Cc1cc2c(=O)n3ccccc3nc2n(-c2nnc(SCc3ccc(F)cc3)s2)c1=O | – | inconclusive: 35.5 µM [rising, partial curve, poor fit]
